According to PubChem BioAssay AID1963576 (National Center for Advancing Translational Sciences (NCATS), 2024):
Hit rate of the full screen: of about 46,000 compounds, about 60 (0.1%) were called active. Not shown: some 3% with an inconclusive outcome. The call rests on the fitted dose curve; in most records, active means well fitted inhibition curve with a large enough effect; inconclusive means small, poorly fitted or top-dose-only effect; inactive means no such curve, though single readings can be large or run the other way. The list shows a part of the results.

Test: Primary qHTS assay for Inhibitors of ovarian cancer metastasis using an organotypic tumor microenvironment (TME) model. Further: nearly all actives have a fitted effect of over 65% in size.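 On activity change, negative = inhibition: plate controls were DMSO wells for no effect and tomatine positive control wells for full effect.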
Conditions: SKOV3ip1-GFP adhesion/invasion on 3D omental model, fluorescence; series mostly up to 45.8 µM; activity change, negative = inhibition: at the top concentration
How it was run: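 Adhesion/invasion was scored as fixed GFP-labeled SKOV3ip1 cell counts (488/509 nm), normalized to DMSO and tomatine controls. Cancer cells in serum-free medium, with four compound doses (0.36-46 umol/L), sat 2 hr at RT then 16 hr at 37 C on a 48 hr fibroblast/mesothelial/ECM culture.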

outcome, inactive:
COc1ccccc1NC(=O)CSc1nc2c(oc3ccccc32)c(=O)n1-c1ccccc1F
O=C(CN1C(=O)c2cccc3cccc1c23)Nc1cccc(F)c1
CCc1cccc(NC(=O)c2cc3c(s2)-c2ccccc2OC3)c1
Cc1cc(C)c(NC(=O)C(=O)NCC(c2cccnc2)N2CCN(c3ccccc3F)CC2)c(C)c1 (stereo unspecified)
COC(=O)c1ccc2c(=O)n3nc(Nc4cc(OC)ccc4OC)sc3nc2c1
COC(=O)c1ccccc1NC(=O)c1oc2ccc3c(c2c1C)C(=O)CC(C)(C)O3
Cc1ccc(NC(=O)CCCn2c(=O)c3cccn3c3ccccc32)cc1Cl
CCOC(=O)c1ccccc1NC(=O)c1cnn(-c2ccc(OC)cc2)c1C1CCN(C(=O)OC(C)(C)C)CC1
COc1cccc(NC(=O)CCc2nnc3n(CC(C)C)c(=O)c4ccccc4n23)c1
CC(=O)c1ccc(NC(=O)CN2C(=O)CCc3cc(S(=O)(=O)N4CCC(C)CC4)ccc32)cc1
CCOc1ccccc1C(=O)Nc1cc2c(cc1N1CCCCC1)n(C)c(=O)n2C
O=C(Nc1ccccc1F)c1oc2ccccc2c1NC(=O)C12CC3CC(CC(C3)C1)C2
COc1ccc(NC(=O)CSc2n[nH]c(-c3ccccc3)n2)cc1Cl
O=C(Nc1ccc(Cl)c(C(F)(F)F)c1)c1cc2nc(-c3ccc4c(c3)OCO4)cc(C(F)(F)F)n2n1
Cc1cc(Nc2cccc(C(F)(F)F)c2)nc2ccc(NC(=O)c3cncc(Br)c3)cc12
CCOc1ccccc1N(CC)C(=O)c1cc2c(=O)n(CC)c3ccccc3c2s1
CSc1nnc2c(n1)OC(c1cccc(O)c1Cl)Nc1ccccc1-2 (stereo unspecified)

Activity change, negative = inhibition, inactive:
CN(Cc1ccccc1)c1ccc(-c2nc(-c3ccccc3)no2)cc1[N+](=O)[O-] -7.76%
C=Cc1ccc(Cn2c(C)c(CNCc3ccc(SC)cc3)c(C(=O)O)c2C)cc1 1.62%
CC(=O)Nc1cccc(NC(=O)CSc2nccn2C2CCCC2)c1 -2.6%
Cc1ccc2[nH]c(=O)c3cc(C(=O)N(CCCOC(C)C)Cc4ccco4)sc3c2c1 -11.8%
COc1ccc(Cl)cc1NC(=O)CSc1nnc2[nH]c(=O)cc(-c3ccccc3)n12 -3.15%
CCC(Sc1ncc(S(=O)(=O)c2ccc(Cl)cc2)c(=O)[nH]1)C(=O)Nc1ccc(OC)cc1 (stereo unspecified) 2.77%
Cc1ccc(OCc2nc(C#N)c(NCCc3ccccc3)o2)cc1 6.7%
Cc1ccccc1NC(=O)CSC1=Nc2ccccc2C2=NC(Cc3ccccc3)C(=O)N12 (stereo unspecified) 3.19%
O=C(NCc1nc2ccccc2n1Cc1ccccc1Cl)c1ccccc1 11.9%
COC(=O)c1cc2sc(Cl)cc2n1CC(=O)Nc1cc(OC)cc(OC)c1 7.31%
O=C1CN(C(=O)COc2ccccc2)C(c2ccc(F)cc2)c2cc(Br)ccc2N1 (stereo unspecified) -11.3%
CCCc1nn2c(=O)cc(COC(=O)C3CCCCC3)nc2s1 0.842%
COc1ccc(-c2nn(-c3ccc(F)cc3)c3c2cnc2ccc(F)cc23)cc1OC 15.9%
COc1cccc(CNC(=O)c2ccc3c(c2)N(Cc2ccc(F)cc2Cl)C(=O)c2ccccc2S3)c1 -5.13%
Cc1ccccc1CN1C(=O)c2ccccc2Sc2ccc(C(=O)NCc3ccccc3)cc21 1.92%
Cc1ccc(Cl)cc1NC(=O)Nc1cn(CC(C)C)c(=O)c2ccccc12 -6.6%
CCN(CCCNC(=O)c1cc(Nc2ccc(OC)cc2)nc2ccccc12)c1cccc(C)c1 -6.26%
COCCn1c(SCC(=O)c2c(C)[nH]c3ccccc23)nc2cc(C(=O)NC(C)C)ccc2c1=O 66.4%
CCOc1ccc(CCNC(=O)Cn2ccc3cc(S(=O)(=O)N4CCCCC4)ccc32)cc1 -1.94%
Cc1ccc(-n2c(=O)[nH]c3cc(C(=O)NCCc4ccccc4)ccc3c2=O)cc1 -7.37%
Cc1ccc(NC(=O)NC(C)c2c(-n3cccc3)sc(C)c2C)cc1F (stereo unspecified) -15.1%
COc1cc(NC(=O)C2CCN(c3nnc(C)c4c(C)n(-c5ccccc5)nc34)CC2)cc(OC)c1 0.948%
Cc1ccc2c(C)c(C(=O)NCC(c3ccc(Cl)cc3)N3CCOCC3)oc2c1 (stereo unspecified) 0.327%
CCOC(=O)c1ccc(NC(=O)CSc2nnc(-c3ccncc3)n2-c2ccccc2)cc1 2.11%
CCN(C(=O)CSc1nc2ccccc2n1Cc1ccccc1C#N)c1ccccc1 -4.25%
Cc1cccc(C)c1NC(=O)Cn1c(=O)n(Cc2ccccc2Cl)c(=O)c2cccnc21 4.46%
NC1(c2ccc(-c3nc4ccn5c(=O)[nH]nc5c4cc3-c3ccccc3)cc2)CCC1 -16.5%
Cc1ccc(-c2nc(S(=O)(=O)c3ccc(C)cc3)c(SCC(=O)c3ccccc3)o2)cc1 -3.77%
COc1ccc(-n2nc(C(=O)Nc3ccc(C)cn3)c3c4ccccc4n(C)c3c2=O)cc1Cl -8.77%
CCOc1ccc(CNC(=O)c2cnc3c(C)cccn3c2=O)cc1 4.85%
CCC(c1ccc(O)cc1)C(CC)c1ccc(O)cc1 (stereo unspecified) -20.7%
Cc1ccc2c(c1)c(=O)c1ccccc1n2CCCC(=O)Nc1ccc(Cl)cc1C 2.82%
O=C(/C=C/c1ccccc1)Nc1nc(-c2cccs2)ns1 -5.6%
N#C/C(=C\c1ccccc1F)c1nc2ccccc2c(=O)[nH]1 14.1%
CCC(O)c1nc2ccccc2n1CCOc1cc(C)cc(C)c1 (stereo unspecified) -8.4%
CCCn1ccc2c(OCC(=O)Nc3ccc(C(F)(F)F)cc3)cccc2c1=O -11.9%
Cc1ccc(CN(C(=O)c2ccc([N+](=O)[O-])cc2)c2ccccn2)cc1 2.87%
NC(=O)c1noc([C@H](CCCC2CCCCC2)CC(=O)NO)n1 4.85%
COc1ccc(OC)c(-n2cnc3cc(C(=O)NCCc4ccccc4)ccc32)c1 15.1%
CC1(CN2CCC(n3c(=O)[nH]c4ccccc43)CC2)OCc2ccccc2-n2cccc21 (stereo unspecified) 0.794%
CCOC(=O)c1noc2nc(C)n(CC(=O)Nc3ccc(Br)cc3C)c(=O)c12 -3.17%
N#Cc1cc2c(=O)n3ccccc3nc2n(-c2nnc(SCc3ccccc3F)s2)c1=O 3.5%
CC(C(=O)NCc1ccc(Cl)cc1)n1ccc2cc(S(=O)(=O)N3CCCC3)ccc21 (stereo unspecified) 0.634%
CC1=C(C(=O)Nc2ccc(C)cc2C)C(c2ccc[nH]2)n2ncnc2N1 (stereo unspecified) -22.6%
